The IC50 comes from the fitted curve, where viability falls to half of the control; where the fit passes the top or lowest dose, that dose stands as a limit. AUC, from the same fit, is the share of area under the viability curve across the 256-fold dose range: 1 means no effect, lower means more sensitive. For some of these results: Where the top dose is marked as inferred, it was calculated from the reported fits.
Tests used:
Assay in all cases: Viability of human cancer cell lines after 72 h of drug (GDSC screen)
BMX-IN-1 (QL-XII-61) = compound: C=CC(=O)Nc1cc(-n2c(=O)ccc3cnc4ccc(-c5ccc(NS(C)(=O)=O)cc5)cc4c32)ccc1C [BMX-IN-1 (QL-XII-61)]; conditions: top dose 10 µM; top dose inferred
Description: (§1)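 Human cancer cell lines in 384-well plates, medium with 10% serum, drug for 72 h over a 256-fold dose range (nine 2-fold or five 4-fold steps up to the top dose). Adherent lines were fixed and stained with the nucleic acid dye Syto60, suspension lines read with resazurin; signal relative to control wells, capped at 0 and 100%. One two-parameter sigmoid per drug and line, fitted in a mixed model over all curves with the slope shared within a line.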

17-AAG = compound: C=CCNC1=C2C[C@@H](C)C[C@H](OC)[C@H](O)[C@@H](C)/C=C(\C)[C@H](OC(N)=O)[C@@H](OC)/C=C\C=C(/C)C(=O)NC(=CC1=O)C2=O [17-AAG]; conditions: top dose 1 µM
Description: as §1

BIX02189 = compound: CN(C)Cc1cccc(N=C(c2ccccc2)c2c(O)[nH]c3cc(C(=O)N(C)C)ccc23)c1 [BIX02189]; conditions: top dose 20 µM; top dose inferred
Description: as §1

Dimethyloxalylglycine = compound: COC(=O)CNC(=O)C(=O)OC [Dimethyloxalylglycine]; conditions: top dose 4000 µM; top dose inferred
Description: as §1

Doxorubicin = compound: COc1cccc2c1C(=O)c1c(O)c3c(c(O)c1C2=O)C[C@@](O)(C(=O)CO)C[C@@H]3O[C@H]1C[C@H](N)[C@H](O)[C@H](C)O1 [Doxorubicin]; conditions: top dose 1.024 µM
Description: as §1

OSI-027 = compound: COc1cccc2cc(-c3nc([C@H]4CC[C@H](C(=O)O)CC4)n4ncnc(N)c34)[nH]c12 [OSI-027]; conditions: top dose 20 µM
Description: as §1

Vismodegib = compound: CS(=O)(=O)c1ccc(C(=O)Nc2ccc(Cl)c(-c3ccccn3)c2)c(Cl)c1 [Vismodegib]; conditions: top dose 10 µM; top dose inferred
Description: as §1

VX-11e = compound: Cc1cnc(Nc2ccc(F)cc2Cl)nc1-c1c[nH]c(C(=O)N[C@H](CO)c2cccc(Cl)c2)c1 [VX-11e]; conditions: top dose 5.12 µM; top dose inferred
Description: as §1

TG101348 = compound: Cc1cnc(Nc2ccc(OCCN3CCCC3)cc2)nc1Nc1cccc(S(=O)(=O)NC(C)(C)C)c1 [TG101348]; conditions: top dose 10.24 µM
Description: as §1

CCT018159 = compound: CCc1cc(-c2n[nH]c(C)c2-c2ccc3c(c2)OCCO3)c(O)cc1O [CCT018159]; conditions: top dose 10 µM; top dose inferred
Description: as §1

UNC1215 = compound: O=C(c1ccc(C(=O)N2CCC(N3CCCC3)CC2)c(Nc2ccccc2)c1)N1CCC(N2CCCC2)CC1 [UNC1215]; conditions: top dose 1 µM; top dose inferred
Description: as §1

| Cell Line | AUC (BMX-IN-1 (QL-XII-61)) | IC50 (BMX-IN-1 (QL-XII-61)) | AUC (17-AAG) | IC50 (17-AAG) | AUC (BIX02189) | IC50 (BIX02189) | AUC (Dimethyloxalylglycine) | IC50 (Dimethyloxalylglycine) | AUC (Doxorubicin) | IC50 (Doxorubicin) | AUC (OSI-027) | IC50 (OSI-027) | AUC (Vismodegib) | IC50 (Vismodegib) | AUC (VX-11e) | IC50 (VX-11e) | AUC (TG101348) | IC50 (TG101348) | AUC (CCT018159) | IC50 (CCT018159) | AUC (UNC1215) | IC50 (UNC1215) |
| --- | --- | --- | --- | --- | --- | --- | --- | --- | --- | --- | --- | --- | --- | --- | --- | --- | --- | --- | --- | --- | --- | --- |
| HT55 (large intestine, adherent) | 0.934 | > 10 µM | 0.875 | 0.98 µM | 0.989 | > 20 µM | 0.656 | 675 µM | 0.897 | > 1.02 µM | 0.99 | > 20 µM | 0.99 | > 10 µM | 0.984 | > 5.12 µM | 0.989 | > 10.2 µM | – | – | – | – |
| TE-10 (oesophagus, adherent) | 0.926 | > 10 µM | 0.765 | 0.36 µM | 0.972 | > 20 µM | 0.642 | 612 µM | 0.614 | 0.131 µM | 0.806 | 9.94 µM | – | – | 0.966 | > 5.12 µM | 0.889 | > 10.2 µM | 0.92 | > 10 µM | 0.986 | > 1 µM |
| HCC202 (breast, adherent) | 0.961 | > 10 µM | 0.889 | > 1 µM | 0.939 | > 20 µM | – | – | 0.794 | 0.699 µM | – | – | 0.937 | > 10 µM | 0.946 | > 5.12 µM | – | – | 0.978 | > 10 µM | 0.974 | > 1 µM |
| LNCaP-Clone-FGC (prostate, adherent) | 0.956 | > 10 µM | 0.864 | > 1 µM | 0.93 | > 20 µM | 0.842 | 3410 µM | 0.659 | 0.189 µM | 0.232 | 0.184 µM | – | – | 0.931 | > 5.12 µM | 0.761 | 4.12 µM | 0.932 | > 10 µM | 0.982 | > 1 µM |
| SCC-15 (head and neck, adherent) | 0.971 | > 10 µM | 0.85 | > 1 µM | 0.964 | > 20 µM | 0.69 | – | 0.656 | 0.202 µM | 0.569 | 2.05 µM | – | – | 0.958 | > 5.12 µM | 0.897 | > 10.2 µM | 0.861 | > 10 µM | 0.956 | > 1 µM |
| H513 (mesothelioma, semi-adherent) | 0.978 | > 10 µM | 0.65 | 0.179 µM | 0.96 | > 20 µM | – | – | 0.764 | 0.45 µM | 0.904 | > 20 µM | 0.986 | > 10 µM | 0.982 | > 5.12 µM | 0.841 | 9.46 µM | 0.985 | > 10 µM | 0.983 | > 1 µM |
| LB996-RCC (kidney, adherent) | 0.974 | > 10 µM | 0.764 | 0.421 µM | 0.977 | > 20 µM | 0.197 | 26.3 µM | 0.508 | 0.0675 µM | 0.971 | > 20 µM | – | – | 0.98 | > 5.12 µM | 0.966 | > 10.2 µM | 0.983 | > 10 µM | 0.981 | > 1 µM |
